Assay results taken from PMC12136788.
The other results are listed elsewhere or left out.

T1: UNK ZnF1-6 (called full-length) (human, UniProt Q9C0B0 30-357)
T1 sequence: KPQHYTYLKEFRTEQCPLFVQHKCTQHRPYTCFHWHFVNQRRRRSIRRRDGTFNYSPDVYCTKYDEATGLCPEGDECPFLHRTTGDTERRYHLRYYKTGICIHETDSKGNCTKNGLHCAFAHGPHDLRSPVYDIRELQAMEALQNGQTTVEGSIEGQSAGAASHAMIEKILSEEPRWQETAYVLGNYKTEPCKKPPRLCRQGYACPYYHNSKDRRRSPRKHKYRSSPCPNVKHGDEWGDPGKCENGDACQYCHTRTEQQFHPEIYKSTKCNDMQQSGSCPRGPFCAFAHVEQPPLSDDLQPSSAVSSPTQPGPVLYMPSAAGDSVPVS

B1: chr9:114377124:114377225:-|CDS|ENSG00000106948|msi1|total|mutant (ssRNA)
RNA: GGGAGUUCUACAGUCCGACGAUCUCCGUUGAACUCAGCCCGGCAAGGUCCUGGAGCAGUGGGACAGUGAGCCUCGACCACCCCCGUGACAGCCUUGAUUCUACCUGGGAAGGAGAGACCGAUGGCCCCCAGCCCACUGCCCUGCAACAGAGGAUUGAGCAUCA
B2: chr9:115020670:115020933:-|3pUTR|ENSG00000041982|msi1|total|mutant (ssRNA)
RNA: GGGAGUUCUACAGUCCGACGAUCCUUCUCUCCGGUGGCUCUGGGAAUGGGAGAGGGGCCGGAUGUACAGGGGCCGUUUGUUUCCGAACCAGCCGUAUUUUACAUGAAGCUGUAUAAUUAAUUGUCAUUAUUUUUGUCCGCAAACAACAGAGGAUUGAGCAUCA
B3: chr14:100278170:100278208:+|3pUTR|ENSG00000100811|msi1_unk|total|mutant (ssRNA)
RNA: GGGAGUUCUACAGUCCGACGAUCGCUAUCUUAAUUUUGGUUGUAUUCUUUGAUGUUAACACAUUUUGUAUAAUUGUAUCGUACCGCUGUAUUGAAUCAUGCCGUAUCAAAUAUCCGAUGUGAUUUAACCGUGUUAAUCAAUUUCAACAGAGGAUUGAGCAUCA
B4: chr14:60975662:60975785:-|CDS|ENSG00000126814|unk|total|mutant (ssRNA)
RNA: GGGAGUUCUACAGUCCGACGAUCGAAAGAAAACCCUCUGUGCACGUUGUCAUGAACUUGCCAGCAAAAGCUACCGAGUUUCUCCGUGCUUUCAAGUGGCUUUCCGAUGGGCAGCCAUGCAGCAGUGAGUUCCUUCCCACCGUGCAACAGAGGAUUGAGCAUCA
B5: chr12:71585298:71585408:+|3pUTR|ENSG00000139292|unk|total|mutant (ssRNA)
RNA: GGGAGUUCUACAGUCCGACGAUCUUGUUAACUCACUCAUAUUGAGAUCAUUUUCCGAGAUACCAGGUUUUAUGUAUCAGCACCCGAUGGUUCCACCCUCAUGGGAUAAAACUGCUUACAAGUAUUUUGAAAGAAAAACUGACCCAACAGAGGAUUGAGCAUCA
B6: chr19:811491:811550:+|3pUTR|ENSG00000011304|msi1_unk|total|mutant (ssRNA)
RNA: GGGAGUUCUACAGUCCGACGAUCCCGCAAUAUUUCCAGUUGACCAAAUAUUCUAAUCUUUUUUCAUUUAUAUGCAAAAGAAACCGUUUUAAGUAACUUUUUACCGCAAGAUGAUACAAUGGUAUGAGUGUAAUCUAAACUUCCCAACAGAGGAUUGAGCAUCA
B7: ENSG00000197063:stop:overlap|stop_codon|ENSG00000197063|stop_codon|NA|stop_codon (ssRNA)
RNA: GGGAGUUCUACAGUCCGACGAUCGCAAGGUGGCCGCCACCAGCGUCAUCACAAUAGUAAAGUCCAAGACGGAUGCCCGAUCGUAGGGACGCGCGUCUGCCCAGGCGGGUCUUUGCGGGGCCACUAGGCACAUGGCGAAUUUGGCAACAGAGGAUUGAGCAUCA
B8: chr6:33573622:33573723:-|3pUTR|ENSG00000030110|unk|FALSE|unique (ssRNA)
RNA: GGGAGUUCUACAGUCCGACGAUCCGAAGUCUUUGCCUUCUCUGUUCCCUUGCAGGGGUCCCCCCUCAAGAGUACAGAAGCUUUAGCAAGUGUGCACUCCAGCUUCGGAGGGCCCCUGCGUGGGGGCCAGUCAGGCUGCAGAGGCAACAGAGGAUUGAGCAUCA
B9: chr7:66987971:66988072:-|3pUTR|ENSG00000126524|unk|FALSE|unique (ssRNA)
RNA: GGGAGUUCUACAGUCCGACGAUCAAGUUACUUGAGGCAGCUCUUGUGGGUGAAAAGUUAUUUGUACAGUAGAGUAAGAUUAUUAGGGGUAUGUCUAUACAACAAAAGGGGGGGUCUUUCCUAAAAAAGAAAACAUAUGAUGCUCAACAGAGGAUUGAGCAUCA
B10: chr2:55866929:55867030:-|3pUTR|ENSG00000115380|msi1|total|mutant (ssRNA)
RNA: GGGAGUUCUACAGUCCGACGAUCAUUUAAGUCAGCCAAAGAAUAUUGUUACCUUAAAGCACUAUUUUAUUUACCGAUAUAUCCCGUGCAUCUACAUCUCUAUACUGUACACUCACCCAUAAUUCAAACAAUUACACCAUGGUACAACAGAGGAUUGAGCAUCA
B11: ENSG00000198589:be:win_4301|CDS|ENSG00000198589|bound_else_gene|NA|bound_elsewhere_windowed (ssRNA)
RNA: GGGAGUUCUACAGUCCGACGAUCUGUCAUCUGGAGGAAUUUUGCGGCAGUGUCUCCGACUAGUUUGUGCAGUCGCAGUAAGGAAUUGCUUGGAGUGUCAACAGCAUUCACAACUGAAAACUAGGGGAGAUAAAGCCUUGAAACCAACAGAGGAUUGAGCAUCA
B12: chr20:17613772:17613873:-|3pUTR|ENSG00000125844|unk|total|mutant (ssRNA)
RNA: GGGAGUUCUACAGUCCGACGAUCAGCCCCGUGGGUGUGUGGGAGGCCGGGCGCUCUGGGGUCUGUCUGUCAGUGCAAUCGUUCCGUGUUUUUUCAGUGGGGCGGGGCGGGAAGCGGGUGGGACCGGGCAGCCAGUUCUCAAAGCAACAGAGGAUUGAGCAUCA
B13: chr8:129748195:129748500:-|three_prime_utr|ENSG00000147697|control|control|control (ssRNA)
RNA: GGGAGUUCUACAGUCCGACGAUCUCCAGAGAUGCUGGCCCUCGCCCAGUCUAUGCUGUGAGUGUCCUUAUGGGUGCAAGAGAUAGGGCUGUGCCUCUCUGCGUUUCCAGGUGGAGUAGAGACAGUAAUGGGUAGAGACUUUAGCAACAGAGGAUUGAGCAUCA
B14: chr1:156668797:156668898:-|3pUTR|ENSG00000132688|msi1|FALSE|bound_elsewhere (ssRNA)
RNA: GGGAGUUCUACAGUCCGACGAUCUGACGGCACUCCCAUGUGCUGACUCCCCCCAUCCCUGCCACGCUGUGGCCCUGCCUGGCUAGUCCCUGCCUGAAUAAAGUAAUGCCUCCGCUUCAAAGUCUGGACUCUUCUUUCCCCCACCAACAGAGGAUUGAGCAUCA

The binders below were run against T1, UNK ZnF1-6 (called full-length) (assay: nsRBNS (natural sequence RNA bind-n-seq); RBNS binding buffer (assumed for nsRBNS): 25 mM Tris pH 7.5, 150 mM KCl, 3 mM MgCl2, 0.01% Triton X-100, 500 ug/ml BSA, 20 U/ml SUPERase-In, 4 C; UNK is unkempt and MSI1 is Musashi-1; names of the RNAs are library labels; protein concentration not given here; high values mean tight binding).

| Binder | binding signal [enrichment R] |
| --- | --- |
| B1 | 0.905 |
| B2 | 0.99 |
| B3 | 0.368 |
| B4 | 0.51 |
| B5 | 0.556 |
| B6 | 0.512 |
| B7 | 0.445 |
| B8 | 0.485 |
| B9 | 0.824 |
| B10 | 0.625 |
| B11 | 0.455 |
| B12 | 1.29 |
| B13 | 0.906 |
| B14 | 1.26 |
